Measurements reported in the supplement of paper PMC3334620.
Whole data set: some 33,000 sequences, median “E-score (-0.5 to 0.5)” near -0.043, cut for the highest 2% near 0.37. The list shows a part of the results.

The sequences below were run against T1, Upc2 (UniProt Q12151) (assay: PBM E-score (8-mer binding enrichment) (E-score (-0.5 to 0.5)); higher = stronger / more preferred TF binding; most listed sequences are background and not binding sites). Settings: protein concentration: 200 nM; construct: GST-full length.
T1 sequence: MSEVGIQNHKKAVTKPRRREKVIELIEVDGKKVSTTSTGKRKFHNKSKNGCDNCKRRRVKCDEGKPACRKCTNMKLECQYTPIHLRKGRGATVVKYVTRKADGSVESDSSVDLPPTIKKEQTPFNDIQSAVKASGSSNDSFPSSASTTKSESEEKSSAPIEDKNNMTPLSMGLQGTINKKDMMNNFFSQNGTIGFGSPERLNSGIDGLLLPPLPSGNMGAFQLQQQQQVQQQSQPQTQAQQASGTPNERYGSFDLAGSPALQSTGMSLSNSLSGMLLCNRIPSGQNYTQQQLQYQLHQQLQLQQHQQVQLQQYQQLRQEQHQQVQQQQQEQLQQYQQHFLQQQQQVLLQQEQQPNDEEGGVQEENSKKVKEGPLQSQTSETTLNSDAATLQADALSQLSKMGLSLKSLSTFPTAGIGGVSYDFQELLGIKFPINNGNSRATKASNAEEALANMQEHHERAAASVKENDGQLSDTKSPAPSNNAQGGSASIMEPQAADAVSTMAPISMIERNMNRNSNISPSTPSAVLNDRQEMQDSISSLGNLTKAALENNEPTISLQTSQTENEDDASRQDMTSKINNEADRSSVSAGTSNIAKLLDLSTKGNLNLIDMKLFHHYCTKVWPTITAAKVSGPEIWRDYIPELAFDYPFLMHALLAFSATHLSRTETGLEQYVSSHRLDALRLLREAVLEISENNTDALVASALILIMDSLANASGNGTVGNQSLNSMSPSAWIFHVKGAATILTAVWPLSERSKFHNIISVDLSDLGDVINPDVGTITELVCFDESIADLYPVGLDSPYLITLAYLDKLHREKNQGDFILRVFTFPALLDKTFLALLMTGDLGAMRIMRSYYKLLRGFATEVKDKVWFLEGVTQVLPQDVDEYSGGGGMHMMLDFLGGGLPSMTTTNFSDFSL
In short: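 For each ungapped eight-base word taken together with its reverse complement, the Universal PBM Analysis Suite assigned an E-score. Binding data came from GST-tagged yeast transcription factors, applied at about 100-200 nM, on universal all-10-mer Agilent arrays made double-stranded by primer extension. Fluorescent anti-GST marked bound protein, and scans were normalised with masliner.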

Sequence	PBM E-score
ACCTAGTC	-0.0345
AGGGCTAT	-0.22
TCACATCA	-0.11
CCTCATGA	-0.12
GACCACCC	-0.161
TACACGAA	0.313
ATCCGTTG	-0.0233
AACGTATG	0.239
ACCACCCG	-0.124
TACGGGAA	0.327
AGGAGTTA	-0.0756
CGGGAGAA	-0.0716
CAAGAGGG	-0.205
ACTAATCA	0.0034
CAATTTCG	0.0133
CAGGATCG	0.094
AAAGAGAG	-0.12
CCCGGAAA	-0.0335
ACTAGCGC	-0.167
ACTGGCGA	-0.204
ACGACATC	0.34
CACTACCC	-0.198
AATGGAAG	-0.159
CTGCCGAA	-0.0435
ACACCGAG	-0.024

Sequence	PBM E-score
CCTGGAAG	-0.334
CTCCGACA	0.0257
ACTCTTGG	-0.103
AGGCTCTA	-0.11
CCCATCGG	0.0976
TCAAGAGA	-0.0229
ATCGCTCC	0.111
AGTCATCC	-0.107
CATAAGGA	-0.0555
GCGCGTAC	0.329
CAGCCCGG	-0.0343
ATAGGGTG	-0.187
GTTGGATA	-0.146
TCATATCA	-0.0283
CCATCCAC	-0.193
AACTGATC	-0.0255
CCGCAACG	0.297
ATTATCAA	-0.0384
AGGCCGCC	-0.314
ACCGGCCA	-0.184
GAGATCCC	-0.212
AATGGATC	-0.145
GAGATAAA	0.0516
ACCTCAGA	-0.377
AGGCAGTG	-0.114

Sequence	PBM E-score
ACCTCTCG	0.127
ATGTAGCG	0.02
ATAGAGGA	-0.143
CGCGAGAG	0.162
ACGGAAAA	0.185
AACCGGAC	-0.0878
ATGGTCAC	-0.142
AGTCACAT	-0.1
TGTGGTAA	0.0324
CTCACAAC	0.0625
TAATCGGA	0.155
ATCCTCGA	-0.00724
CGTTAAGA	0.341
ACCTGCCA	-0.234
GGCTGCAA	-0.14
ATCCCAGA	-0.238
CCACAGAG	-0.0522
CCAAAACA	-0.143
TCTATGAA	0.0298
ACATTCCA	-0.124
TGCTTCAA	-0.233
ACAACCAG	0.00918
ATGTACCC	-0.126
CAAGTGAG	-0.214
AATAGAGT	-0.0523

Sequence	PBM E-score
CAATGTAA	0.0538
TAAAACGA	0.356
TCCCGTCA	-0.0393
CTCCACAG	-0.305
AATCGAGG	0.182
AATGTCTG	-0.077
CGCGATGA	0.0925
AAAACCGA	0.244
AGCAGGGA	-0.221
ATTAATCA	-0.00167
TCATGACA	0.0787
CCTGAAGA	-0.00695
GAACGACC	0.429
CTAACTAG	0.0137
GCGTCGAA	-0.0193
CCTGCGAA	-0.0541
CAGCAGAA	-0.0037
CCCATCCC	-0.0946
CGCATGAA	0.108
AGAAGAAC	0.0403
AATGTATC	0.041
CACACACA	-0.0178
AGGCACAT	-0.0795
CTACACGA	0.334
AAACATCC	-0.0738

Sequence	PBM E-score
ATGGCAAA	-0.126
AACATGAG	-0.139
ACGGCAGT	0.209
CAGCTGAC	-0.176
CACACTCG	0.132
CTATCGGC	-0.266
CGTTGTGC	0.0699
AAGGCGAC	-0.119
GAGATATA	0.0522
ATTCCTTC	-0.102
CACGTCGC	0.061
GCAGGAGC	-0.137
ATCCACAA	-0.118
CCAAACAA	0.00545
ACACCATG	-0.147
ACGAATAC	0.287
AATACGGC	0.291
AGTTGTGA	-0.00341
GGAAACAA	-0.0508
TAGATTAA	0.104
CCCCTGTA	-0.103
AACAATCC	-0.0485
CAATCAAA	-0.00922
ACACTAAT	-0.0751
CGGCTGTC	0.0196

Sequence	PBM E-score
CCCGGCTC	-0.145
CGAGCGTC	0.189
CCTTCGAA	-0.0831
AGACTCTA	-0.0049
CCGCCCGC	0.0673
ATTATTGC	0.0867
CCTTGTAA	0.0908
AAGCCTCG	0.141
GATCAGAC	-0.158
CACTTAAC	0.126
ACCTCCGT	0.0209
GTACGTTA	0.343
ACAATCAG	0.00625
GGGTCTTA	-0.104
CACGGCAC	-0.155
CTTGTGGC	-0.275
ATTATAAT	0.147
GGGGCCCC	-0.134
CTTCCGAC	-0.0251
GTTTCGTA	0.446
ACCAACTC	-0.0426
ACGCCAGT	-0.0196
CTTATACC	0.172
AGTCTAAA	-0.00311
CCAGAAAC	0.0333

Sequence	PBM E-score
AAGCGGCA	0.0509
GAAGCAAA	-0.0986
AAGTTGCA	-0.0796
CCGCGCGA	0.0382
GTTATATA	0.104
TGTACGAA	0.479
CTCGAGAC	0.0431
ATCAACTC	0.0114
CGGGGCGA	0.0688
AGTACGAT	0.345
CAGTAGGC	-0.0788
AACCCAAG	-0.0808
GGTGTACA	-0.0299
CTAAAGTA	-0.0451
AACGCCTC	-0.141
CCAGTAAC	-0.0934
ATTGCCGA	0.0654
AGCCTGCA	-0.194
CTATATAG	0.114
CCAATTTA	0.0967
AGAATGGA	-0.0363
CTTCCCCA	-0.212
